Measurements as given in patent publication US20240246946A1, “MODULATORS OF TREX1” (Constellation Pharmaceuticals, Inc., priority 2021, published 2024).
The name of at least one read-out is uncertain.

target: T1, hTREX1 (Homo sapiens, UniProt Q9NSU2); test: hTREX1 HCT116 Cell Assay (HCT116 dual cells, Lucia luciferase reporter of Type I interferon induction); format: cell-based; settings: TREX1i 4 h before pBR322/BstNI transfection, read after 48 h
T1 construct: host or cells: HCT116 dual cells
T1 sequence (Q9NSU2 1-314): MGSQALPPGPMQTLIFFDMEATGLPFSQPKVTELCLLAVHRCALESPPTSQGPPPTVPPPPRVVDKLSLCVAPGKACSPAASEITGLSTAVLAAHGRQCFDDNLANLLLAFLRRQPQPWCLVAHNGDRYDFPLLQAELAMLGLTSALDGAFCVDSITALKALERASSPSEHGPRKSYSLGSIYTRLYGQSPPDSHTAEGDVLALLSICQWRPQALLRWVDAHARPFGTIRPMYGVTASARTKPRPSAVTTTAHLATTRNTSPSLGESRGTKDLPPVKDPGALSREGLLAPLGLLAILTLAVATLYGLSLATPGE
Description: HCT116 dual cells (Invivogen, San Diego, CA, USA) are derived from the human HCT116 colorectal carcinoma cell line. Cells have been selected for the stable integration of SEAP and Luciferase reporter genes, which expression is under the control of 5 tandem response elements for NF-KB/AP1 and STAT1/STAT2, respectively. The cell line was used to monitor Type I interferon induction and subsequent signaling by measuring the activity of the Lucia luciferase secreted in the culture medium.
HCT116 cells were plated in 96-well plate(s) at 40,000 cells/well in 100 uL DMEM supplemented with 10% FBS and 25 mM Hepes (pH 7.2-7.5). After overnight settling, cells were treated with TREX1i for 4 h (maximum DMSO fraction was 0.1%) before 1 ug/mL pBR322/BstNI restriction digest (New England Biolabs, Ipswich, MA, USA) was transfected with Lipofectamine LTX (ThermoFisher, Grand Island, NY, USA), according to product manual recommendations. Briefly, Lipofectamine LTX (0.35 uL/well) was diluted in OptiMEM (5 uL/well). pBR322/BstNI (100 ng/well) was diluted in OptiMEM (5 uL/well) before Plus reagent (0.1 uL/100 ng DNA) was added. After 5 min incubation at room temperature, the DNA mixture was mixed dropwise with the diluted Lipofectamine LTX. After an additional 10 min incubation, the transfection mix (10 uL/well) was added to the cells. Cells were maintained at 37 C for 48 h before monitoring the Lucia Luciferase activity from the cell culture medium.

Question: For `CC(c1nc(C(=O)Nc2cnoc2)c(O)c(=O)n1C)C(c1cnn(CCN2CCN(C)CC2)c1)c1ccccc1C#N` (single isomer, unassigned) [Example 32 D1E2], which IC50 is on record?
Answer: > 100 nM

Question: `CC(c1nc(C(=O)Nc2cnoc2)c(O)c(=O)n1C)C(c1cnn(CCO)c1)c1ccccc1C#N` (single isomer, unassigned) [Example 35 D2E1] was tested. Which IC50 did it give?
Answer: > 100 nM

Question: With `CCn1ncc(C(c2ccc(F)cc2C#N)C(C)c2nc(C(=O)Nc3cnoc3)c(O)c(=O)n2C)c1C` (single isomer, unassigned) [Example 65 D2E2] as the compound, how does the IC50 read?
Answer: < 10 nM

Question: For `CCn1ncc(C(c2ccccc2C#N)C(C)c2nc(C(=O)Nc3cnoc3)c(O)c(=O)n2C)c1C` (single isomer, unassigned) [Example 68 D2E1], which IC50 is on record?
Answer: < 10 nM

Question: `COCCn1ncc(C(c2ccccc2C#N)C(C)c2nc(C(=O)Nc3cnoc3)c(O)c(=O)n2C)c1C` (single isomer, unassigned) [Example 69 D2E2] was tested. Which IC50 did it give?
Answer: 10 to 100 nM

Question: For `CC(c1nc(C(=O)Nc2cnoc2)c(O)c(=O)n1C)C(c1nnn(C)n1)c1ccccc1C#N` (single isomer, unassigned) [Example 79 D2E1], which IC50 is on record?
Answer: > 100 nM

Question: How did the IC50 turn out when `CC(c1nc(C(=O)Nc2cnoc2)c(O)c(=O)n1C)C(c1cnn(C)c1)c1ccc(O)cc1C#N` (single isomer, unassigned) [Example 80 D2E2] was run?
Answer: > 100 nM

Question: For `CC(c1nc(C(=O)Nc2cnoc2)c(O)c(=O)n1C)C(c1cnn(CC(C)(C)O)c1)c1ccccc1Cl` (single isomer, unassigned) [Example 86 D1E2], which IC50 is on record?
Answer: > 100 nM

Question: For `CC(c1nc(C(=O)Nc2cnoc2)c(O)c(=O)n1C)C(c1cnn(CC2COC2)c1)c1ccccc1Cl` (single isomer, unassigned) [Example 88 D1E2], which IC50 is on record?
Answer: > 100 nM

Question: `CC(c1nc(C(=O)Nc2cnoc2)c(O)c(=O)n1C)C(c1cnn(CC2COC2)c1)c1ccccc1Cl` (single isomer, unassigned) [Example 88 D2E1] was tested. Which IC50 did it give?
Answer: > 100 nM

Question: `COCCn1cc(C(c2cc(F)ccc2Cl)C(C)c2nc(C(=O)Nc3cnoc3)c(O)c(=O)n2C)cn1` (single isomer, unassigned) [Example 97 D1E2] was tested. Which IC50 did it give?
Answer: > 100 nM

Question: How did the IC50 turn out when `CC(c1nc(C(=O)Nc2cnoc2)c(O)c(=O)n1C)C(c1cnn(CCOC(F)(F)F)c1)c1cc(F)ccc1Cl` (single isomer, unassigned) [Example 98 D1E2] was run?
Answer: > 100 nM

Question: With `CC(c1nc(C(=O)Nc2cnoc2)c(O)c(=O)n1C)C(c1cnn(CC(C)(C)C#N)c1)c1cc(F)ccc1Cl` (single isomer, unassigned) [Example 99 D1E2] as the compound, how does the IC50 read?
Answer: > 100 nM

Question: How did the IC50 turn out when `CC(c1nc(C(=O)Nc2cnoc2)c(O)c(=O)n1C)C(c1cnn(C(C)(C)CC#N)c1)c1cc(F)ccc1Cl` (single isomer, unassigned) [Example 100 D1E2] was run?
Answer: > 100 nM

Question: With `COCCn1ncc(C(c2cc(F)ccc2C#N)C(C)c2nc(C(=O)Nc3cnoc3)c(O)c(=O)n2C)c1C` (single isomer, unassigned) [Example 104 D2E2] as the compound, how does the IC50 read?
Answer: > 100 nM

Question: `Cc1cnc(C(c2ccccc2C#N)C(C)c2nc(C(=O)Nc3cnoc3)c(O)c(=O)n2C)c(C)n1` (single isomer, unassigned) [Example 123 D2E1] was tested. Which IC50 did it give?
Answer: > 100 nM

Question: With `CC(c1nc(C(=O)Nc2cnoc2)c(O)c(=O)n1C)C(c1ccccc1Cl)c1nncn1C` (single isomer, unassigned) [Example 152 D2E1] as the compound, how does the IC50 read?
Answer: > 100 nM

Question: For `Cc1nnc(C(c2ccccc2Cl)C(C)c2nc(C(=O)Nc3cnoc3)c(O)c(=O)n2C)o1` (single isomer, unassigned) [Example 156 D2E2], which IC50 is on record?
Answer: > 100 nM
